Molecular target: T1, 15N-labeled RAD52-CTD (217-418), GST tag cleaved (human, UniProt P43351 217-418, uniformly 15N labeled)
T1 sequence: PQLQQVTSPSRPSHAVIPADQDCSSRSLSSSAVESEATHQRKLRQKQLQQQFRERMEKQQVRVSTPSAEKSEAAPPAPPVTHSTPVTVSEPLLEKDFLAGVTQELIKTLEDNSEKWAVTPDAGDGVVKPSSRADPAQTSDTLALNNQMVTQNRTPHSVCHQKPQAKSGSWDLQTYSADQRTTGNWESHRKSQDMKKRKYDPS
Assay: NMR titration

- binding result: binds
B1: Human RPA32C ([…]) (domain or fragment)
chain: not shown
